Results as given in PubChem BioAssay AID938 (National Center for Advancing Translational Sciences (NCATS), 2007).
Hit rate of the full screen: of about 73,000 compounds, about 1,800 (2.5%) were called active. This list was built around the results that the source calls inconclusive (neither active nor inactive); the mix of calls is not that of the screen. Calls come from the whole dose curve; as a rule, active = well fitted activation curve with a large enough effect; inconclusive = small, poorly fitted or top-dose-only effect; inactive = no such curve, though single readings can be large or run the other way. No potency is given beside an inconclusive call; the fits are too rough.

assay: qHTS Assay for Agonists of the Thyroid Stimulating Hormone Receptor: Activators of Intracellular cAMP Concentrations in Parental HEK 293; settings: parental HEK293 CNG cAMP sensor, membrane potential fluorescence; activation: at 57.1 µM (top of the series) unless noted; note: nearly all actives have a fitted effect of over 55% in size; for activation: % of control where 0% means no effect
Summary of the method: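 Parental HEK 293 cells stably expressing a modified CNG channel (no TSHR) report cAMP rise as membrane depolarization. Membrane potential dye with 100 uM RO 20-1724 was loaded for 60 min at room temperature, then compound added for 30 min; fluorescence read at 590 nm.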
Potency is the fitted concentration of half-maximal effect; tags give direction and shape of the fitted curve.

Row | Compound | Potency | activation
1 | Cc1cc(C)c(C#N)c(SCc2ccc3c(c2)OCO3)n1 | active: 20 µM | –
2 | CCN(CC)CCNC(=O)c1cc(S(C)(=O)=O)ccc1OC | inconclusive [activator, single point] | –
3 | Clc1ccc(OCc2nn3c(-c4ccco4)nnc3s2)c(Cl)c1 | active: 31.6 µM | –
4 | COC(=O)[C@@]1(Cc2ccc(F)cc2)[C@H]2c3cc(C(=O)N(C)C)n(CCc4c[nH]c5ccc(OC)cc45)c3C[C@H]2CN1C(=O)c1ccccc1 | inactive | –
5 | N#CC1=C(N)SC2(CCCCC2)SC1c1ccccc1 (stereo unspecified) | inactive | –
6 | CCOC(=O)CSc1nnc(-c2ccccc2NC(=O)c2ccccc2)o1 | inconclusive [activator, partial curve] | –
7 | COc1ccc2nc3c(cc2c1)c(NC(=O)c1cccs1)nn3CC(C)C | inactive | –
8 | COC(=O)c1sc(S(=O)(=O)N2CCC(C)CC2)c(C(=O)OC)c1C | inconclusive [activator, single point] | –
9 | Cc1cccc2cc(CN(Cc3nnnn3Cc3ccccc3)C3CCCC3)c(=O)[nH]c12 | inconclusive [activator, partial curve] | –
10 | CCOC(=O)C1CCN(C(=O)c2oc3ccc(S(=O)(=O)N4CCCCCC4)cc3c2C)CC1 | inconclusive [activator, partial curve] | –
11 | O=C(NC1CCCCC1)C(c1ccccc1F)N(Cc1ccco1)C(=O)Cn1nnc2ccccc21 (stereo unspecified) | active: 20 µM | –
12 | CCCn1c(SCC(=O)Nc2sc(C)c(C)c2C(=O)OC)nc2c1c(=O)n(C)c(=O)n2C | inconclusive [activator, single point] | –
13 | CCOC(=O)c1ccccc1NC(=O)Cn1cnc2c(cnn2-c2ccc(F)cc2)c1=O | inconclusive [activator, single point] | –
14 | CCc1cc(C(=O)Cc2nc3ccccc3[nH]2)c(O)cc1O | inconclusive [activator, partial curve] | –
15 | COc1ccc(C(=O)N2CCC[C@@]3(CCN(Cc4ccccc4OC)C3)C2)cc1 | active: 15.8 µM | –
16 | COCCn1c(C)cc(C(=O)CSc2ncnc3sc4c(c23)CCC4)c1C | inactive | –
17 | Cc1cccc2cc(CN(Cc3nnnn3Cc3ccco3)C3CCCC3)c3nnnn3c12 | active: 10 µM | –
18 | Cc1cc(C)n2nc(SCC(=O)c3cc(C)n(-c4cc(C)on4)c3C)nc2n1 | inconclusive [activator, single point] | –
19 | CSc1cccc(NC(=O)CSc2nc3ccccc3o2)c1 | inconclusive [activator, single point] | –
20 | COc1ccccc1-c1cc(C(F)(F)F)nc(S(=O)(=O)CCCC(=O)N2CCCCC2C)n1 (stereo unspecified) | inconclusive [activator, single point] | –
21 | O=C(OCC(=O)N1CCCCCC1)c1n[nH]c(=O)c2ccccc12 | inactive | –
22 | Cc1nnc(SCCCN2C(=O)c3ccccc3C2=O)o1 | inconclusive [activator, partial curve] | –
23 | O=C(NC1=NCCS1)c1ccc(-c2ccc(Cl)cc2)o1 | inactive | –
24 | C#C[C@]1(O)CC[C@@H]2[C@H]3CCC4=CCCC[C@@H]4[C@@H]3CC[C@@]21C | inactive | –

Row | Compound | Potency | activation
25 | CC(C)Cc1n[nH]c(=O)[nH]1 | inconclusive [activator, partial curve] | –
26 | COCC(=O)N1CCC2(CCCN(c3ccc(-c4ccccc4)cc3)C2)CC1 | inactive | –
27 | COc1ccccc1-c1nc(-c2ccc(Br)cc2)no1 | inactive | –
28 | Cc1cc2nnc(SCC(=O)N3C(C)CCCC3C)n2c(N)n1 (stereo unspecified) | inconclusive [activator, single point] | –
29 | CCC(C)(C)n1nnnc1CN(Cc1cc2cc(OC)ccc2[nH]c1=O)C1CCCC1 | active: 20 µM | –
30 | Cc1c(C(=O)Nc2cccc3cccnc23)oc2ccccc12 | inconclusive [activator, single point] | –
31 | CCOC(=O)CC(Nc1nc(N2CCOCC2)nc(N2CCOCC2)n1)c1ccccc1Cl (stereo unspecified) | inconclusive [activator, single point] | –
32 | CN(C)S(=O)(=O)c1ccc(S(=O)(=O)N(Cc2ccco2)Cc2ccccc2Cl)cc1 | active: 12.6 µM | –
33 | CCOC(=O)C(C)(C)[C@H](O)C(C)C | – | inactive: -5.89% [at 11.4 µM]
34 | Cc1ccccc1Cn1cc(S(=O)(=O)CC(=O)Nc2nccs2)c2ccccc21 | inconclusive [activator, partial curve] | –
35 | Cc1ccc(OCCn2c(C)c(/C=N/n3cnnc3)c3ccccc32)cc1 | inactive | –
36 | O=C(NC1CCCCC1)C(c1ccc(Cl)cc1)N(C(=O)c1cnccn1)c1ccc2c(c1)OCO2 (stereo unspecified) | inconclusive [activator, single point] | –
37 | O=C(NCCCN1CCOCC1)c1cc2ccccc2oc1=O | inconclusive [activator, full curve] | –
38 | O=S(=O)(c1ccc(N2CC=C(c3ccccc3)CC2)nc1)N1CCCC1 | inconclusive [activator, single point] | –
39 | Cc1nnc(SCC(=O)Nc2ccccc2N2CCOCC2)s1 | inconclusive [activator, single point] | –
40 | CSc1ccc2c(c1)N(CC[C@H]1CCCCN1C)c1ccccc1S2 | inactive | –
41 | N#CC(C#N)=C(N)/C(C#N)=C/c1ccc(O)cc1 | inactive | –
42 | Cc1cc(C(=O)CSc2nnnn2-c2ccc(Cl)cc2)c(C)n1CC1CCCO1 (stereo unspecified) | inconclusive [activator, single point] | –
43 | Cn1cc(Cl)c(C(=O)NC2CCCC2)n1 | inconclusive [activator, single point] | –
44 | OC[C@@H]1O[C@@H](n2cnc3c(Nc4ccccc4)ncnc32)[C@@H](O)[C@H]1O | inconclusive [activator, single point] | –
45 | Cc1ccc(-c2nc3c(=O)n(C)c4ccccc4c3o2)cc1 | inconclusive [activator, single point] | –
46 | CCN(C(=O)COc1cc(=O)n(CC)c2ccccc12)c1cc(Cl)ccc1OC | inconclusive [activator, full curve] | –
47 | Cc1ccc(Cn2nnc3c(=O)n(Cc4cc(C)ccc4C)cnc32)cc1 | active: 3.16 µM | –
48 | COC(=O)[C@@H](NC(=O)N1CCN(c2cccc(C(F)(F)F)c2)CC1)C(C)C | inactive | –

Row | Compound | Potency | activation
49 | CC(C)c1c(C#N)c(N)nc(SCC(=O)c2cc3ccccc3oc2=O)c1C#N | inconclusive [activator, single point] | –
50 | O=C(Nc1ccc(Nc2ccccc2)cc1)c1ccc(Br)o1 | inactive | –
51 | COc1ccc2c3c(c(=O)oc2c1OCC(N)=O)CCCC3 | inconclusive [activator, single point] | –
52 | Cc1nc(SCC(=O)Nc2ccc(C)c(F)c2)c2oc3ccccc3c2n1 | inconclusive [activator, partial curve] | –
53 | CC(C)(C)NC(=O)COC(=O)c1snc(C(=O)NC2CCCCC2)c1N | inconclusive [activator, partial curve] | –
54 | CCOC(=O)c1c(/N=C/N(C)C)sc(C(=O)OC)c1C | inconclusive [activator, single point] | –
55 | CN(C)Cc1ccccc1-c1cc(Nc2ccccc2)ncn1 | inactive | –
56 | O=C(NCc1cccnc1)[C@@H]1[C@@H](C(=O)O)[C@H]2CC[C@@H]1O2 | inconclusive [activator, single point] | –
57 | Cc1cc(N2CCOCC2)c2c(N)c(C)cc(C)c2n1 | inconclusive [activator, single point] | –
58 | Cc1cccc(N2CCN(C(c3ccccc3)c3nnnn3CC3CCCO3)CC2)c1C (stereo unspecified) | inconclusive [activator, partial curve] | –
59 | CCCOc1cccc(C(=O)Nc2cc(NC(=O)c3ccco3)ccc2OC)c1 | inconclusive [activator, single point] | –
60 | OC(COc1ccccc1)CN1C2=NCCCN2c2ccccc21 (stereo unspecified) | inconclusive [activator, partial curve] | –
61 | C=C(C)C(=O)OC | inactive | –
62 | O=C1CCCN1c1ccc(S(=O)(=O)N2CCC(c3ccccc3)CC2)cc1 | inconclusive [activator, partial curve] | –
63 | COc1ccc(-n2c(Cc3cc(=O)[nH]c(=O)[nH]3)nnc2SCC(=O)N2CCCC2)cc1 | inconclusive [activator, single point] | –
64 | CC(C)(C)OC(=O)N1CCC[C@H]1c1nnc(SCc2ccc(Cl)cc2Cl)o1 | inconclusive [activator, partial curve] | –
65 | NS(=O)(=O)c1ccc(NC(=O)c2ccccc2C(=O)N2CCCCC2)cc1 | inactive | –
66 | CC(C)CN1CCCC2(CCN(C(=O)c3cccc(F)c3)CC2)C1 | inconclusive [activator, single point] | –
67 | O=C(O)CCNc1ccccc1C(=O)O | – | inactive: 5.65% [at 11.4 µM]
68 | CCN1CCCC1Cn1c(-c2ccccc2)nc2c(N(CCOC)CCOC)nc(C)nc21 (stereo unspecified) | inconclusive [activator, single point] | –
69 | O=C1[C@H]2[C@H]3[C@H](O)[C@H](O)C/C(=N/OCc4ccccc4)[C@@H]3CC[C@@H]2C(=O)N1Cc1ccccc1 | – | inactive: 1.7% [at 11.4 µM]
70 | CCOC(=O)c1ccc(Oc2cc(C)nc(SC)n2)cc1 | active: 3.16 µM | –
71 | O=S(=O)(c1cccs1)N1CCN(Cc2nc3ccccc3s2)CC1 | inconclusive [activator, single point] | –
